The inconclusive results got no clear call from the source; some entries with a clear call stand among them for comparison. Where the call is inconclusive, the potency comes from a doubtful curve fit. The source made the active and inactive calls. Calls follow the shape of the dose curve; as a rule, active = well fitted cell-killing curve with a large enough effect; inconclusive = small, poorly fitted or top-dose-only effect, or effect the other way; inactive = no such curve, though single readings can be large or run the other way.
Assay: Viability qHTS for spleen associated tyrosine kinase inhibitor (SYKi) naive MV4-11 cells (AID 1963823); also: nearly all actives have a fitted effect of over 40% in size
Details: MV4-11 AML viability, CellTiter-Glo luminescence, 72 h; series mostly up to 45 µM
Outline: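 Read-out: CellTiter-Glo luminescence. Exposure: 72 hr, 37 C, 5% CO2, 95% humidity. Cells: MV4-11 without SYK inhibitor history, 500/well, qHTS format.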
Potency is read from the fitted curve at half-maximal effect; tags tell the direction and shape of the fitted curve.

| Structure (SMILES) | Potency |
| --- | --- |
| COc1cnc(-c2ccc(Cn3c(CC(C)(C)C(=O)O)c(SC(C)(C)C)c4cc(OC[C@@H]5Cc6ccccc6N5C(C)=O)ccc43)cc2)nc1 | inconclusive: 12.8 µM [cytotoxic, single point] |
| COc1cccc(N2CCN(C3=Nc4c(F)cccc4[C@H](CC(=O)O)N3c3cc(C(F)(F)F)ccc3OC)CC2)c1 | inconclusive: 11.6 µM [cytotoxic, partial curve] |
| O=C(N[C@@H]1CCCc2c1cnn2-c1ccc(F)cc1F)c1ccccn1 | inconclusive: 9.2 µM [cytotoxic, partial curve] |
| C#CCOc1ccc2c(c1)c(-c1ccc(C(C)C)cc1)nc(=O)n2C(C)C | inconclusive: 18.4 µM [cytotoxic, partial curve] |
| CCCN(CCC)C(=O)C(CCC(=O)O)NC(=O)c1ccccc1 (stereo not drawn) | inactive |
| CCNC(=O)Nc1ccc(-c2nc3c(c(N4CCOCC4C)n2)CCN(C2COC2)C3)cc1 (stereo not drawn) | inconclusive: 0.411 µM [cytotoxic, full curve] |
| Cc1cc(C)c(-n2cc(C)c3c(Cl)nc(C)nc32)c(C)c1 | inconclusive: 20.6 µM [cytotoxic, partial curve] |
| O=C(/C=C/c1cccnc1)c1ccncc1 | inconclusive: 5.17 µM [cytotoxic, full curve] |
| CCOc1ccc(-c2cc(NC(=O)c3c(F)cccc3F)c(C(=O)O)s2)cc1 | inactive |
| C=C1CCCC2(C)CCC(C(C)(C)OC3OC(C)C(O)C(O)C3OC(=O)/C(C)=C\C)CC12 (stereo not drawn) | inconclusive: 14.2 µM [cytotoxic, single point] |
| Cc1ccc([C@@H]2CC=C(C(=O)O)[C@H](c3ccc(C(C)(C)C)cc3)N2S(=O)(=O)c2ccc(C)cc2)cc1 | inconclusive: 18.4 µM [cytotoxic, single point] |
| COC1C2=C(COC2=O)C2(C)CCCC(C)(CO)C2C1OC(=O)c1ccccc1 (stereo not drawn) | inconclusive: 7.96 µM [cytotoxic, single point] |
| COc1ccc(/C=C/C(N)=O)cc1OC | inconclusive: 0.461 µM [cytotoxic, full curve, poor fit] |
| C/C=C(\C)C(=O)OCC1OC(OC2OC(CO)C(O)C(O)C2O)C(O)C(O)C1O (stereo not drawn) | inactive |
| CCOCCn1nc(CC)c2nc(N3CCC(C(=O)O)CC3)nc(Nc3cc(C)ccn3)c21 | inactive |
| O=C1c2c(O[C@@H]3O[C@H](CO)[C@@H](O)[C@H](O)[C@H]3O)cc(O)cc2OC1(O)Cc1ccc(O)cc1 (stereo partly drawn) | active: 2 µM |
| O=C(O)Cc1sc(-c2ccccc2)nc1-c1ccc(Cl)cc1 | inactive |
| C=C1C(O)C[C@@H]2C(C(=O)O)=CO[C@@H](O[C@@H]3O[C@H](CO)[C@@H](O)[C@H](O)[C@H]3OC(=O)c3ccc(O)cc3)[C@H]12 (stereo partly drawn) | inactive |
| CCC(=O)N1CCOc2c(cc(-c3ccc(OC)c(OC)c3)cc2OC[C@H]2CCCN(C)C2)C1 | inconclusive: 11.6 µM [cytotoxic, partial curve] |
| COC(=O)C1(C)c2[nH]c3ccccc3c2CCN1C(=O)CCl (stereo not drawn) | inconclusive: 2.91 µM [cytotoxic, full curve] |
| O=C(OCC1=CC(O)C2C=CO[C@@H](O[C@@H]3O[C@H](CO)[C@@H](O)[C@H](O)[C@H]3O)C12)c1ccccc1 (stereo partly drawn) | inactive |
| CC(C)[C@@H](c1ccc(C(F)(F)F)cc1CN(Cc1cc(C(F)(F)F)cc(C(F)(F)F)c1)c1nnn(C)n1)N1CCC(C(=O)O)CC1 | active: 16.4 µM |
| CCOc1ccc(NS(=O)(=O)c2ccc(N)cc2)nn1 | inactive |
| C/C1=C\CC[C@]2(C)O[C@@H]2[C@H](O)[C@H](C(C)C)[C@H](OC(=O)/C=C/c2ccccc2)C1 | inconclusive: 16.1 µM [cytotoxic, partial curve, poor fit] |
| Cc1ccsc1/C=C/C1=NCCCN1C | inconclusive: 11.9 µM [cytotoxic, partial curve, poor fit] |
| CCN1CCN(Cc2ccc(-c3cc4c(NC(C)c5ccccc5)ncnc4[nH]3)cc2)CC1 (stereo not drawn) | active: 0.92 µM |
| CC1=C(C)C(=O)OC(C(C)C2CCC3C4CC=C5CC(OC6OC(COC7OC(CO)C(O)C(O)C7O)C(O)C(O)C6O)CC(O)C5(C)C4CCC23C)C1 (stereo not drawn) | inactive |
| COc1cc2nc(N3CCC(N4CCCCC4)CC3)nc(NC3CCCCCC3)c2cc1OC | inconclusive: 1.46 µM [cytotoxic, full curve] |

From PubChem BioAssay (NCATS)
